Whole data set: some 33,000 sequences, median “E-score (-0.5 to 0.5)” near -0.032, cut for the highest 2% near 0.36. Some of the results follow.
biological target: T1, Sko1 (UniProt Q02100); assay: PBM E-score (8-mer binding enrichment) (E-score (-0.5 to 0.5)); higher = stronger / more preferred TF binding; most listed sequences are background and not binding sites; conditions: protein concentration: 200 nM; construct: GST-full length
T1 sequence: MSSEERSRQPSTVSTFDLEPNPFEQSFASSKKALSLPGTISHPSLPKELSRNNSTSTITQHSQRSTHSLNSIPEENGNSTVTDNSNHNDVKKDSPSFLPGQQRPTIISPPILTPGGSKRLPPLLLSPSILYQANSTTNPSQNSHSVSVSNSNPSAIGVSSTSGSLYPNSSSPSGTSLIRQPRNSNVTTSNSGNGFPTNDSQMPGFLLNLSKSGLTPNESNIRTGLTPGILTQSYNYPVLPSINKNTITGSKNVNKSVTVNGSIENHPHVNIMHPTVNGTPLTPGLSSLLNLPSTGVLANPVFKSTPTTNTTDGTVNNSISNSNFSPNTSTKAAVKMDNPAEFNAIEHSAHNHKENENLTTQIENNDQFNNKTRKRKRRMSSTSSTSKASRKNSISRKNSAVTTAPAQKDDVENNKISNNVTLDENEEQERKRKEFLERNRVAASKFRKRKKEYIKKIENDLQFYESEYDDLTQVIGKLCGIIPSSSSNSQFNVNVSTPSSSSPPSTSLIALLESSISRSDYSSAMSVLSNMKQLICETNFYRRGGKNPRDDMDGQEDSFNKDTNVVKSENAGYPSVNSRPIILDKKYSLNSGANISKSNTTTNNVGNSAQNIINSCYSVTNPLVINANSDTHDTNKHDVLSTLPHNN
In short: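 Universal all-10-mer Agilent arrays, double-stranded by primer extension on fresh or once-stripped slides, were probed with about 100-200 nM GST-tagged yeast transcription factors made by PURExpress. Fluorescent anti-GST detected bound protein, and masliner normalised the scans. E-scores from the Universal PBM Analysis Suite were given to each ungapped eight-base word pooled with its reverse complement.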

Sequence	PBM E-score
AGTGTGTG	-0.0482
ACGCACCT	0.126
AATATGGA	0.0432
ATACAGCC	-0.0833
CACCCCGC	-0.213
CATGGTTC	0.153
ATTGAGGC	-0.104
CTTGTGAC	0.117
ATGGACCG	-0.202
CCATACCA	-0.132
CAGGTTCC	-0.304
AGCTCAGA	-0.107
ACTTGGCC	-0.116
GGTCTTAC	0.107
GCGGTGTA	-0.0935
CTAGAAAG	-0.12
AGATACCT	-0.131
CGACTTTA	0.00116
TGAATGAA	0.197
GGGCAATA	-0.14
ATATCAGC	-0.053
AACGTGTA	0.247
AAAGACGG	-0.111
CACTCAAA	0.0598
CGGGCAGA	-0.133

Sequence	PBM E-score
AGAAGACG	0.193
GAACAACA	-0.0512
CTTTCTAC	0.189
CAGTGCGG	-0.212
CTAAACTC	-0.0134
TCATTACA	0.342
ATTACATA	0.386
AGATTACT	0.201
CCACCTCG	-0.302
ACTGCCTA	0.0604
AAAAGTAA	0.159
AGGTGAAT	-0.00384
ACATCCAG	-0.0541
CACGACGG	0.169
CCGAAAGG	-0.229
CGATAGCC	-0.0218
CCTGTTCG	-0.0292
TGTATGAA	0.0696
GGGATTCA	-0.192
AACTTCAT	0.113
CTCGTATA	0.0394
CCAATGCA	-0.148
AGAGAAAC	0.0722
CTGGGGCA	-0.33
TAACGTCA	0.48

Sequence	PBM E-score
AGAACCCC	-0.334
GTAAACGA	0.25
GTGACTGA	0.114
AACCGGCC	-0.212
GCGAGAAA	-0.0845
AAGGCGCA	-0.0485
AGTGCTAT	-0.0679
CAATGAGG	-0.0905
CAATAGGC	-0.173
CTGTATGC	-0.137
GGGGGGAA	-0.365
GAAAGATC	-0.118
GAGGGGCA	-0.268
GGAAGGTA	-0.103
GAGTAACC	-0.0223
ATGACTAC	0.123
CTAAGCGA	-0.352
CCAGTAAG	-0.0973
GCTCCTAC	0.0151
GCGCAGCA	-0.339
AGCTAGGC	-0.223
ACGTCCCA	0.23
CATGTCGC	0.0417
GGTACGGA	-0.174
ACTGCGAA	0.0584

Sequence	PBM E-score
AGGGTAGA	-0.149
ACAAGATA	0.0391
CGCCAACG	-0.0267
AGCCCCCG	-0.325
GGACGGAA	-0.12
GGTTGCCA	-0.215
GCAGCGAC	-0.262
ACTGGCGC	-0.0635
CCCTTCTA	-0.105
CGCGGACG	0.036
GGCACAGA	-0.221
AGCCGCCT	-0.293
ACTCTGAT	0.101
ACGCTTTG	0.0823
GCTATCCC	-0.234
AGCGTAAG	0.0565
CAGCCTAG	-0.295
ATCACGAG	0.0133
AGGACCAG	-0.302
AAGCAAAT	0.116
ATCGTTGC	0.00042
ATTGAACG	0.109
CTGGTAAA	-0.0322
GGCCAAAA	-0.00857
AGATGCGG	-0.119

Sequence	PBM E-score
CCAACCTA	-0.131
CATAACAC	0.198
CACCATAG	-0.171
CATGCAAA	0.0985
CATCTCAG	-0.071
ACGACACC	0.114
CAGCTGCG	-0.0892
ACGCGGAA	0.0704
AACCACCG	-0.0286
CTATCGAA	0.0258
GTACTTCA	0.271
ACCGTAGA	0.047
AAGGGCGG	-0.209
CGTACACG	0.335
AGCACTCA	-0.0652
CATCATCA	0.361
GACATTTA	0.0915
CGTTGGAC	0.0837
AAAGAAGA	0.0252
ACGGTGGC	-0.0763
AACGCAGG	-0.184
CCGGTATC	-0.278
ACCCGGTG	-0.157
ACGATGAA	0.123
CAAATGGC	-0.0357

Sequence	PBM E-score
CGGTCTGC	-0.149
AATTCCAT	-0.0002
CGACGAAA	0.266
GATAACCC	-0.236
ATTGTCCC	-0.216
GACTTGGA	-0.226
AGGGTTAA	-0.0609
CTGAGGAA	-0.107
GGTCTTGA	0.0182
CTGCTATC	-0.0506
AATTCGGG	-0.124
AAAGCCAG	-0.108
AAAACGCA	0.186
ACAGAATG	0.0222
ACATTTGC	0.0838
GGCCGCTA	-0.209
ACAACCCG	-0.112
AATGGACC	0.0339
ATAGTATC	0.132
AGCAAGTA	0.0608
ACCTGATG	-0.126
GAGAATAC	0.114
CATGACAA	-0.00914
CAGCCAGG	-0.215
ACGCCATA	0.393

Sequence	PBM E-score
CCTCTAGC	-0.13
CCGCATGA	0.0723
CCCCGTCC	-0.406
AAGCCGCG	-0.108
AACACGTG	0.395
GGTCTTAA	-0.0965
ACTGCCAG	-0.161
ATACCCAT	0.0607
CTTTGTAC	0.0159
TCTTGAAA	0.118
CTAGGCCA	-0.184
ACACAAGC	0.00974
TGACTTAA	0.197
AAATTCAA	0.181
CGAATCCC	-0.126
ACACTACT	-0.0134
CATCCTAA	0.173
AATTTGGG	0.0602
AGTGCCTA	-0.0535
ACTGCGAG	-0.177
AGAGCGCA	-0.242
AACTCGAC	0.0597
ATCCCAAT	0.00798
AAGAGGGT	-0.134
AGTCAATC	0.017

Sequence	PBM E-score
CTAGCATC	-0.0273
ACAACTGT	0.012
CGGGACGC	-0.234
AAGAGCTC	-0.114
ACCCGATC	0.028
AAGTGCAG	-0.0763
CACCTAGG	-0.031
ATCTCCTA	-0.0714
CTGAGCCC	-0.222
CTCTCTAA	-0.229
ACTACACC	0.0296
AGGTCTCC	-0.27
CAATAGAA	-0.1
ACTACGGG	-0.221
ACGTGCAC	0.355
GCCTGAGC	-0.162
ATGGGGGG	-0.236
GTGGCAAA	-0.00522
GAGCATTA	0.0416
AGGAACGC	-0.0849
CTTTCGGA	-0.16
AACTTTAG	0.247
AGGCGGAC	-0.208
AGTTACGA	0.293
CGACATGC	0.131

Sequence	PBM E-score
AATACACG	0.307
AGCCCTCC	-0.412
CGAGGCGA	-0.222
GCTGAAGC	-0.119
AAGCTCAA	-0.0304
CTCTCTTC	-0.107
GATCTTAC	-0.00807
GATATTAA	0.0842
AGCGAGCG	0.0279
CTTCAAGA	0.0181
GACACGTC	0.382
AGGCTTCG	-0.242
GATCTTAA	0.0822
ACGCTCCG	-0.152
ACGAGATC	0.0765
GCACGCGC	0.164
AGTAATTG	0.173
GTTAAGGA	0.0042
ACTGGGCT	-0.359

— the supplement of paper PMC3334620
